# Assay results from the supplement of paper PMC8728848.
# This is one part of the list.
# Assays:
# Experiment in all cases: glycan array binding signal (z-score within array); higher = stronger binding
# Conditions in all cases: glycan notation: IUPAC condensed, linker removed
# [1] = biological target: GlcNAc(b1-4)GlcNAc(b1-4)GlcNAc(b1-4)GlcNAc(b1-4)GlcNAc(b1-4)GlcNAc
# Summary of the method: (§1)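 Glycan array data came from 3228 arrays in the Consortium for Functional Glycomics database, and only arrays with an available protein sequence were kept. Glycan names were put into IUPAC-condensed notation, and columns mapping to the same glycan were averaged. The binding signal is a within-array Z-score, averaged across arrays of one protein sequence run at different concentrations or buffers and across linkers. A negative Z-score can be read as non-binding.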
# [2] = biological target: GlcNAc(b1-4)[GlcNAc(b1-6)]GalNAc
# Summary of the method: as §1
# [3] = biological target: GlcNAc(b1-6)Gal(b1-4)GlcNAc
# Summary of the method: as §1
# GlcNAc(b1-6)GalNAc = biological target: GlcNAc(b1-6)GalNAc
# Summary of the method: as §1
# [4] = biological target: GlcNAc6S(b1-3)Gal(b1-4)GlcNAc
# Summary of the method: as §1
# Kdn(a2-3)Gal(b1-3)GalNAc = biological target: Kdn(a2-3)Gal(b1-3)GalNAc
# Summary of the method: as §1
# Kdn(a2-3)Gal(b1-3)GlcNAc = biological target: Kdn(a2-3)Gal(b1-3)GlcNAc
# Summary of the method: as §1
# Kdn(a2-3)Gal(b1-4)Glc = biological target: Kdn(a2-3)Gal(b1-4)Glc
# Summary of the method: as §1
# Kdn(a2-3)Gal(b1-4)GlcNAc = biological target: Kdn(a2-3)Gal(b1-4)GlcNAc
# Summary of the method: as §1
# [5] = biological target: Kdn(a2-3)Gal(b1-4)[Fuc(a1-3)]GlcNAc
# Summary of the method: as §1
# Kdn(a2-6)Gal(b1-4)GlcNAc = biological target: Kdn(a2-6)Gal(b1-4)GlcNAc
# Summary of the method: as §1
# [6] = biological target: Man(a1-2)Man(a1-2)Man(a1-3)Man
# Summary of the method: as §1
# [7] = biological target: Man(a1-2)Man(a1-2)Man(a1-6)[Man(a1-3)]Man
# Summary of the method: as §1
# Man(a1-2)Man(a1-3)Man = biological target: Man(a1-2)Man(a1-3)Man
# Summary of the method: as §1
# [8] = biological target: Man(a1-2)Man(a1-3)[Man(a1-2)Man(a1-6)]Man
# Summary of the method: as §1
# [9] = biological target: Man(a1-2)Man(a1-3)[Man(a1-2)Man(a1-6)]Man(a1-6)[Man(a1-2)Man(a1-2)Man(a1-3)]Man
# Summary of the method: as §1
# [10] = biological target: Man(a1-2)Man(a1-3)[Man(a1-2)Man(a1-6)]Man(a1-6)[Man(a1-2)Man(a1-2)Man(a1-3)]Man(b1-4)GlcNAc(b1-4)GlcNAc
# Summary of the method: as §1
# [11] = biological target: Man(a1-2)Man(a1-3)[Man(a1-6)]Man(a1-6)[Man(a1-2)Man(a1-3)]Man(b1-4)GlcNAc(b1-4)GlcNAc
# Summary of the method: as §1
# [12] = biological target: Man(a1-2)Man(a1-6)[Man(a1-3)]Man(a1-6)[Man(a1-2)Man(a1-2)Man(a1-3)]Man
# Summary of the method: as §1
# [13] = biological target: Man(a1-2)Man(a1-6)[Man(a1-3)]Man(a1-6)[Man(a1-2)Man(a1-2)Man(a1-3)]Man(b1-4)GlcNAc(b1-4)GlcNAc
# Summary of the method: as §1
# Man(a1-3)[Man(a1-6)]Man = biological target: Man(a1-3)[Man(a1-6)]Man
# Summary of the method: as §1
# [14] = biological target: Man(a1-3)[Man(a1-6)]Man(a1-6)[Man(a1-2)Man(a1-3)]Man(b1-4)GlcNAc(b1-4)GlcNAc
# Summary of the method: as §1
# [15] = biological target: Man(a1-3)[Man(a1-6)]Man(a1-6)[Man(a1-3)]Man
# Summary of the method: as §1
# [16] = biological target: Man(a1-3)[Man(a1-6)]Man(a1-6)[Man(a1-3)]Man(b1-4)GlcNAc(b1-4)GlcNAc
# Summary of the method: as §1
# [17] = biological target: Man(a1-3)[Man(a1-6)]Man(b1-4)GlcNAc(b1-4)GlcNAc
# Summary of the method: as §1
# [18] = biological target: Man(a1-3)[Man(a1-6)]Man(b1-4)GlcNAc(b1-4)[Fuc(a1-6)]GlcNAc
# Summary of the method: as §1
# Man(a1-6)Man = biological target: Man(a1-6)Man
# Summary of the method: as §1
# Man(b1-4)GlcNAc = biological target: Man(b1-4)GlcNAc
# Summary of the method: as §1
# MurNAc(b1-4)GlcNAc = biological target: MurNAc(b1-4)GlcNAc
# Summary of the method: as §1
# Neu5Ac(a2-3)Gal = biological target: Neu5Ac(a2-3)Gal
# Summary of the method: as §1
# [19] = biological target: Neu5Ac(a2-3)Gal(b1-3)GalNAc
# Summary of the method: as §1
# [20] = biological target: Neu5Ac(a2-3)Gal(b1-3)GalNAc(b1-3)Gal(a1-4)Gal(b1-4)Glc
# Summary of the method: as §1
# [21] = biological target: Neu5Ac(a2-3)Gal(b1-3)GalNAc(b1-4)[Neu5Ac(a2-3)]Gal(b1-4)Glc
# Summary of the method: as §1
# [22] = biological target: Neu5Ac(a2-3)Gal(b1-3)GalNAc(b1-4)[Neu5Ac(a2-8)Neu5Ac(a2-3)]Gal(b1-4)Glc
# Summary of the method: as §1
# [23] = biological target: Neu5Ac(a2-3)Gal(b1-3)GalNAc6S
# Summary of the method: as §1
# [24] = biological target: Neu5Ac(a2-3)Gal(b1-3)GlcNAc
# Summary of the method: as §1
# [25] = biological target: Neu5Ac(a2-3)Gal(b1-3)GlcNAc(b1-2)Man
# Summary of the method: as §1
# [26] = biological target: Neu5Ac(a2-3)Gal(b1-3)GlcNAc(b1-2)Man(a1-3)[GlcNAc(b1-4)][Neu5Ac(a2-3)Gal(b1-3)GlcNAc(b1-2)Man(a1-6)]Man(b1-4)GlcNAc(b1-4)GlcNAc
# Summary of the method: as §1
# [27] = biological target: Neu5Ac(a2-3)Gal(b1-3)GlcNAc(b1-2)Man(a1-3)[Neu5Ac(a2-3)Gal(b1-3)GlcNAc(b1-2)Man(a1-6)]Man(b1-4)GlcNAc(b1-4)GlcNAc
# Summary of the method: as §1
# [28] = biological target: Neu5Ac(a2-3)Gal(b1-3)GlcNAc(b1-2)[Neu5Ac(a2-3)Gal(b1-3)GlcNAc(b1-4)]Man(a1-6)[Neu5Ac(a2-3)Gal(b1-3)GlcNAc(b1-2)Man(a1-3)]Man(b1-4)GlcNAc(b1-4)GlcNAc
# Summary of the method: as §1
# [29] = biological target: Neu5Ac(a2-3)Gal(b1-3)GlcNAc(b1-3)Gal(b1-3)GlcNAc
# Summary of the method: as §1
# [30] = biological target: Neu5Ac(a2-3)Gal(b1-3)GlcNAc(b1-3)Gal(b1-4)GlcNAc
# Summary of the method: as §1
# [31] = biological target: Neu5Ac(a2-3)Gal(b1-3)GlcNAc(b1-3)GalNAc
# Summary of the method: as §1
# [32] = biological target: Neu5Ac(a2-3)Gal(b1-3)GlcNAc(b1-4)Gal(b1-4)Glc
# Summary of the method: as §1
# [33] = biological target: Neu5Ac(a2-3)Gal(b1-3)GlcNAc(b1-6)GalNAc
# Summary of the method: as §1
binder,measurement,setting,value
rCnSL-proB (Clitocybe nebularis) (protein) PTFSPIFALLAFLPFGTLASLLPQTQLVFRINPNLPGPNDVFVGYRGTNNVVGAIYERDGIKDTPMNNGADAELGPGSYITDDLFTAQIFASGSAGNNPGTTATVCKIYADGVQWRGAPKGYLPVLYFGNGQAAEQTRQTYLQGLDIPGTAIRFANLAKTPNQGPTAPRQMVVPSGGLQTLLKASCFPANHAALPQVLSYFNVRAALPPGWNIRTGPEFPNWTN,glycan array binding signal (z-score),[1],-0.718
same,glycan array binding signal (z-score),[2],-0.808
same,glycan array binding signal (z-score),[3],-0.206
same,glycan array binding signal (z-score),GlcNAc(b1-6)GalNAc,-0.534
same,glycan array binding signal (z-score),[4],0.34
same,glycan array binding signal (z-score),Kdn(a2-3)Gal(b1-3)GalNAc,-0.229
same,glycan array binding signal (z-score),Kdn(a2-3)Gal(b1-3)GlcNAc,-0.41
same,glycan array binding signal (z-score),Kdn(a2-3)Gal(b1-4)Glc,-1.27
same,glycan array binding signal (z-score),Kdn(a2-3)Gal(b1-4)GlcNAc,-0.337
same,glycan array binding signal (z-score),[5],-0.717
same,glycan array binding signal (z-score),Kdn(a2-6)Gal(b1-4)GlcNAc,-0.277
same,glycan array binding signal (z-score),[6],-0.497
same,glycan array binding signal (z-score),[7],-0.267
same,glycan array binding signal (z-score),Man(a1-2)Man(a1-3)Man,-0.533
same,glycan array binding signal (z-score),[8],-0.16
same,glycan array binding signal (z-score),[9],-0.197
same,glycan array binding signal (z-score),[10],0.089
same,glycan array binding signal (z-score),[11],-0.399
same,glycan array binding signal (z-score),[12],-0.65
same,glycan array binding signal (z-score),[13],0.243
same,glycan array binding signal (z-score),Man(a1-3)[Man(a1-6)]Man,-0.191
same,glycan array binding signal (z-score),[14],0.746
same,glycan array binding signal (z-score),[15],-0.048
same,glycan array binding signal (z-score),[16],-0.557
same,glycan array binding signal (z-score),[17],-0.355
same,glycan array binding signal (z-score),[18],0.077
same,glycan array binding signal (z-score),Man(a1-6)Man,-0.439
same,glycan array binding signal (z-score),Man(b1-4)GlcNAc,-0.202
same,glycan array binding signal (z-score),MurNAc(b1-4)GlcNAc,-0.477
same,glycan array binding signal (z-score),Neu5Ac(a2-3)Gal,-0.521
same,glycan array binding signal (z-score),[19],-0.437
same,glycan array binding signal (z-score),[20],-0.235
same,glycan array binding signal (z-score),[21],-0.343
same,glycan array binding signal (z-score),[22],-0.807
same,glycan array binding signal (z-score),[23],-0.48
same,glycan array binding signal (z-score),[24],0.332
same,glycan array binding signal (z-score),[25],-0.191
same,glycan array binding signal (z-score),[26],0.265
same,glycan array binding signal (z-score),[27],3.69
same,glycan array binding signal (z-score),[28],0.146
same,glycan array binding signal (z-score),[29],-0.53
same,glycan array binding signal (z-score),[30],-0.462
same,glycan array binding signal (z-score),[31],-0.205
same,glycan array binding signal (z-score),[32],-0.533
same,glycan array binding signal (z-score),[33],-0.08
